Biological target: 天然TSLP
Assay: cell-based or functional assay

B1: QX008N(HZD8G2-57) (antibody, part only; not given: Light chain, part only)
heavy: EVQLVESGGGLVQPGGSLRLSCAASGFSLSSYYMSWVRQAPGKGLEWVGFISYGGSAYHATWAQGRFTISKDNSKNTLYLQMNSLRAEDTAVYYCAREFRSMTYGAEWGIWGQGTLVTVSS[human IgG1 constant region not shown]
- IC50, inhibition of natural TSLP-induced STAT5 phosphorylation in SW756-STAT5-Luciferase reporter cells: 0.462 ng/mL

Reference: patent publication CN114028562A
